# Source: PubChem BioAssay AID485341 (National Center for Advancing Translational Sciences (NCATS), 2010)
# Out of some 330,000 compounds screened, about 1,700 (0.52%) were called active. This list was built around the results that the source calls inconclusive (neither active nor inactive); the mix of calls is not that of the screen. The call rests on the fitted dose curve; in most records, active means well fitted inhibition curve with a large enough effect; inconclusive means small, poorly fitted or top-dose-only effect; inactive means no such curve, though single readings can be large or run the other way. A potency beside an inconclusive call is a rough fit, not a confirmed value.
# Target: Beta-lactamase (Escherichia coli (strain K12)) (UniProt P00811)
# Assay: qHTS Inhibitors of AmpC Beta-Lactamase (assay without detergent); further: nearly all actives have a fitted effect of over 20% in size;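 on activity change, negative = inhibition: plate controls were no compound for no effect and no enzyme for full effect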
# Details: AmpC nitrocefin hydrolysis, absorbance 480 nm, 0.0001% Triton; activity change, negative = inhibition: at 57.1 µM (top of the series) unless noted
# Summary of the method: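 AmpC (5.3 nM in the dispensed reagent) in 20 mM phosphate pH 7.0 with 0.01% (detergent screen) or 0.0001% Triton X-100 was preincubated with compounds for 15 min at room temperature. Nitrocefin was then added from an 800 uM solution, and hydrolysis was followed at 480 nm.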
# Potency means the concentration at half of the fitted maximal effect; tags describe the fitted curve by direction and shape.
# Sequence of UniProt P00811 (P00811 whole entry, looked up): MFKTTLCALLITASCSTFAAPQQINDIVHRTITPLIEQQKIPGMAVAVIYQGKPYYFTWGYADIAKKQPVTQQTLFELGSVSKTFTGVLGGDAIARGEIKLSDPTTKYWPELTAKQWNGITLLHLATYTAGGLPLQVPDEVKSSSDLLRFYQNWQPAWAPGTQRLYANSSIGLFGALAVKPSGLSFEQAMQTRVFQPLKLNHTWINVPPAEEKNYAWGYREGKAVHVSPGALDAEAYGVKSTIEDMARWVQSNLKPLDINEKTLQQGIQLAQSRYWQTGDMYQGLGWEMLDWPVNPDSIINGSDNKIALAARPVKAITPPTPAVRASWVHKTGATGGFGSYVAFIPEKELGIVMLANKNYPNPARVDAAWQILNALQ
Structure (SMILES),Potency,"activity change, negative = inhibition"
Cc1cc(=O)n(CCc2ccccc2)c(O)c1C#N,active: 2.51 µM,–
Cc1nc(CS(=O)(=O)c2ccccc2)cc(Sc2ccc(Cl)cc2)n1,active: 3.98 µM,–
CC(=O)Nc1ccc(NC(=O)CSc2nncn2C)cc1,–,inactive: -11.2%
O=C1C(Cc2c[nH]c3ccccc23)NC(=S)N1Cc1ccccc1 (centres undefined),"inconclusive: 20 µM [inhibitor, partial curve]",–
COc1c2ccc(C(=O)NCc3cc(C(F)(F)F)cc(C(F)(F)F)c3)cc2nn1C,"inconclusive: 5.62 µM [inhibitor, single point]",–
Cc1cc2c(ncn2Cc2ccccc2)c(NS(C)(=O)=O)c1C,"inconclusive: 8.91 µM [inhibitor, single point]",–
Cn1c(NC(=O)c2ccccc2NC(=O)C(C)(C)C)nc2ccccc21,"inconclusive: 44.7 µM [inhibitor, partial curve, poor fit]",–
Cc1cccc(-n2c(O)c(C=NCCCN3CCOCC3)c3ccccc3c2=O)c1,"inconclusive: 8.91 µM [inhibitor, single point]",–
COc1ccccc1NC(=O)c1sc2ncn(Cc3ccc(C)cc3)c(=O)c2c1C,active: 0.316 µM,–
COc1ccc(C(=O)NNC(=O)CSc2nnc(COc3ccccc3)n2C)cc1,"inconclusive: 7.08 µM [inhibitor, single point]",–
O=S(=O)(c1ccc2c(c1)OCCO2)N1CCN(c2ncnc3sccc23)CC1,–,inactive: -20.1%
CC(=O)c1ccc2c3c(cccc13)C(=O)N(CCc1ccccc1)C2=O,"inconclusive: 35.5 µM [inhibitor, single point]",–
Cc1ccc2nc(CCl)[n+]([O-])c(-c3ccccc3)c2c1,–,inactive: -19.3%
CC(=O)Nc1ccc(NC(=O)C(C)OC(=O)CCC2CCCC2)cc1 (centres undefined),"inconclusive: 39.8 µM [inhibitor, single point]",–
NC(=S)N/N=C/c1ccc(-c2cc(Cl)c(Cl)cc2Cl)o1,active: 20 µM,–
Cc1ccc(-c2ccc(/C=N/NC(=S)Nc3ccccc3)o2)cc1[N+](=O)[O-],active: 3.55 µM,–
COc1ccc(C)cc1NC(=O)C(Sc1nnc(Nc2ccccc2F)s1)c1ccccc1 (centres undefined),active: 3.55 µM,–
CC(NS(=O)(=O)c1ccc(Br)cc1)C(c1cccs1)N1CCN(C)CC1 (centres undefined),active: 44.7 µM,–
O=C(Nc1nc(-c2ccccn2)cs1)c1ccc(Cl)s1,–,inactive: -13.1%
CCN(CC)c1ccc(/C=N/NC(=O)c2ccc3nc[nH]c3c2)c(O)c1,–,inactive: -47.1%
O=C(O)c1ccc(Cl)c2c1C1C=CCC1C(c1ccccn1)N2 (centres undefined),–,inactive: -20.9%
CCCC(=O)Nc1ccc(NC(=O)c2ccco2)c(OC)c1,"inconclusive: 5.01 µM [inhibitor, partial curve, poor fit]",–
O=C(CSc1nnc(-c2ccc(C(F)(F)F)cn2)o1)Nc1cccc(Cl)c1,"inconclusive: 8.91 µM [inhibitor, single point]",–
COc1ccc2cc(C(=O)NC3CCCCC3)c(=O)oc2c1,–,inactive: -12.6%
CCC(CC)c1nnc(NC(=O)C23CC4CC(CC(NC(C)=O)(C4)C2)C3)s1,–,inactive: 193%

Structure (SMILES),Potency,"activity change, negative = inhibition"
O=C(CNC(=O)c1cccs1)NC1=NCCS1,"inconclusive: 0.141 µM [inhibitor, full curve, poor fit]",–
Clc1cc(Br)ccc1OCCn1ccnc1,"inconclusive: 0.158 µM [inhibitor, full curve, poor fit]",–
Cc1c(NC(=O)c2ccc(-c3cccc([N+](=O)[O-])c3)o2)c(=O)n(-c2ccccc2)n1C,–,inactive: -16.5%
CCN1C(=O)C(c2ccc(O)cc2)(c2ccc(O)cc2)c2ccccc21,"inconclusive: 28.2 µM [inhibitor, single point]",–
Cc1ccc(S(=O)(=O)Nc2cccc(-c3ccc(N4CCCCCC4)nn3)c2)cc1,active: 0.708 µM,–
Cc1[nH]nc(-c2ccc(O)c(C)c2O)c1-c1cnn(-c2ccccc2)c1,"inconclusive: 8.91 µM [inhibitor, full curve, poor fit]",–
CCc1ccc(-n2cccc2/C=C2/C(=N)N3C(=NC2=O)SN=C3S(C)(=O)=O)cc1,"inconclusive: 20 µM [inhibitor, partial curve]",–
O=C(c1ccccc1)N1CCC(=O)N1c1ccccc1,–,inactive: -13.1%
Cc1ccc(/C=C/C(=O)N2CCc3ccccc3C2)cc1,–,inactive: -7.42%
CCN(CC)c1ccc(/C=C/C(=O)c2ccc(Br)cc2)cc1,–,inactive: -15.1%
COc1ccc2nc(/C(C#N)=C\c3ccc(Oc4ccc([N+](=O)[O-])cn4)cc3)[nH]c2c1,–,inconclusive: -62.8% [inhibitor]
CC1Cc2ccccc2N1Cc1cc(=O)c(OCC(=O)Nc2ccccc2)co1 (centres undefined),active: 35.5 µM,–
COc1cccc(-c2nc(CS(=O)(=O)CC(=O)Nc3cccc(C)c3C)c(C)o2)c1,active: 44.7 µM,–
CC1CCCC(C)N1c1nnc(NC(=O)Cn2c(=O)oc3ccccc32)s1 (centres undefined),active: 10 µM,–
Cc1ccc(F)c(NC(=S)Nc2cccc3ccccc23)c1,–,inactive: -28.4%
CCN1CCN(S(=O)(=O)c2cc(OCC(=O)NC3CCCCC3)c(C)cc2Cl)CC1,–,inactive: 164%
Cc1ccccc1-n1c(SCC(=O)N/N=C/C=C/c2ccccc2[N+](=O)[O-])nc2ccccc2c1=O,"inconclusive: 3.16 µM [inhibitor, single point]",–
COC(=O)Nc1nc(C)c(C(=O)c2ccccc2)s1,–,inactive: -0.202%
CCCCn1c(O)c(/C=C/C=C/C=Nc2ccccc2)sc1=S,"inconclusive: 3.98 µM [inhibitor, full curve]",–
N#Cc1ccc(-c2csc(NC(=O)/C=C/c3cccs3)n2)cc1,"inconclusive: 11.2 µM [inhibitor, partial curve]",–
CCOC(=O)C1=C(C)Nc2nc(SCC(=O)OC)nn2C1c1cc(F)cc(F)c1 (centres undefined),"inconclusive: 0.282 µM [inhibitor, full curve, poor fit]",–
Cc1cc(Br)ccc1NC(=O)C1CCCO1 (centres undefined),"inconclusive: 6.31 µM [inhibitor, single point]",–
O=C(NCc1ccc2c(c1)OCO2)C1CCC(CNc2c(N3CCCC3)c(=O)c2=O)CC1 (centres undefined),"inconclusive: 11.2 µM [inhibitor, partial curve, poor fit]",–
CN(C)CCCN(C(=O)c1ccc2c(c1)CCCC2)c1nc2ccc(F)cc2s1,–,inactive: 137%
